The results in this text go back to the supplement of paper PMC10037445.

For assay [1], the system named is RAW-Dual. Kind of assay: IRF Lucia reporter activity, fold change vs agonist alone; cytotoxicity flag (confluency mask): not cytotoxic; higher = enhanced IRF activity. In a few lines: (§1)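 Cytotoxic wells were those whose IncuCyte confluency was below 70% of agonist controls in both mask sets. The cells were RAW-Dual macrophages at 50,000 cells/well in DMEM on 384-well plates, dosed with 50 nL of library stock by pin tool, stimulated with a PRR agonist 1 h later, and kept at 37 °C, 5% CO2 for 20 hours. IRF and NF-κB reporter activity, as fold change over agonist-alone wells, came from supernatant read by QuantiLuc luminescence and QuantiBlue absorbance, respectively.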

Assay [2] concerns RAW-Dual. Nature of the assay: IRF Lucia reporter activity, fold change vs agonist alone; higher = enhanced IRF activity. The following applies: library stock concentration (final ~1000-fold dilution): 10 mM, agonist: MPLA (TLR4) […]. Summed up:
as §1

Assay [3] has as its system RAW-Dual. Kind of assay: IRF Lucia reporter activity, fold change vs agonist alone; cytotoxicity flag (confluency mask): cytotoxic (confluency <70% of control); higher = enhanced IRF activity. Summed up:
as §1

Where [4] appears, read: agonist: 3'3'-cGAMP (STING) 10 ug/mL.
The mark [5] stands for this setting: cytotoxicity flag (confluency mask): cytotoxic (confluency <70% of control).
Setting [6] is: cytotoxicity flag (confluency mask): not cytotoxic.

“And” between values parts separate entries of the source, which are not always exact repeats. Equal entries are not always repeated. Over roughly 2,900 compounds, “IRF Lucia reporter activity, fold change vs agonist alone” has its median near 0.9; the highest 2% begin near 2.8. Some of the results follow.

As to `CCC12C=CCN3CCC4(C(=C(C(=O)OC)C1)Nc1ccccc14)C32` (centres undefined) (library stock concentration (final ~1000-fold dilution): 10 mM), the “IRF Lucia reporter activity” value stood at 0.0884 in assay [1] (setting [4]) and 0.14 in assay [1] (agonist: LPS (TLR4) 0.1 ug/mL).
On to `Cl.Cl.Fc1ccc(C(OCCN2CCN(CCCc3ccccc3)CC2)c2ccc(F)cc2)cc1`, for which the “IRF Lucia reporter activity” value in assay [2] (setting [5]) is 0.846.
For `Cl.Cl.Fc1ccc(C(OCCN2CCN(CCCc3ccccc3)CC2)c2ccc(F)cc2)cc1` (library stock concentration (final ~1000-fold dilution): 10 mM), the “IRF Lucia reporter activity” value in assay [3] (setting [4]) was 0.202; in assay [3] (agonist: LPS (TLR4) 0.1 ug/mL), 0.637.
For `O=C(CBr)N1CC([N+](=O)[O-])([N+](=O)[O-])C1` (library stock concentration (final ~1000-fold dilution): 10 mM), the figures for the “IRF Lucia reporter activity” value in assay [3] (setting [4]) and in assay [3] (agonist: LPS (TLR4) 0.1 ug/mL) were 0.129 and 0.0763, respectively.
As for `O=C(OC1CC2CCC(C1)[N+]21CCCC1)C(O)(c1ccccc1)c1ccccc1` (centres undefined) (library stock concentration (final ~1000-fold dilution): 10 mM), the “IRF Lucia reporter activity” value in assay [1] (setting [4]) was 0.947; in assay [1] (agonist: LPS (TLR4) 0.1 ug/mL) it was 1.01.
For the compound `O=C(OC1CC2CCC(C1)[N+]21CCCC1)C(O)(c1ccccc1)c1ccccc1` (centres undefined), the “IRF Lucia reporter activity” value in assay [2] (setting [6]) was 0.921.
Still for that read-out and setting: the result for `O=C(O)CC[N+](=O)[O-]` reads 1.17.
On to `O=C(O)CC[N+](=O)[O-]` (library stock concentration (final ~1000-fold dilution): 10 mM), for which the “IRF Lucia reporter activity” value turned out to be 1.04 in assay [1] (setting [4]) and 1 in assay [1] (agonist: LPS (TLR4) 0.1 ug/mL).
The matching figures for `CC(C)=CCCC(C)(O)C1CCC2(C)C1C(O)CC1C3(C)CCC(OC4OC(CO)C(O)C(O)C4O)C(C)(C)C3CCC12C` (centres undefined) (library stock concentration (final ~1000-fold dilution): 10 mM): 0.948 and 0.902.
In the case of `Nc1ncnc2c1ccn2C1OC(CO)C(O)C1O` (centres undefined) (library stock concentration (final ~1000-fold dilution): 10 mM), the results for the “IRF Lucia reporter activity” value in assay [3] (setting [4]) and in assay [3] (agonist: LPS (TLR4) 0.1 ug/mL) were 0.0112 and 0.0189, respectively.
Consider `COc1cc2c(cc1OC)C(Cc1ccc(O)c(Oc3cc4c(cc3OC)CCN(C)C4Cc3ccc(O)cc3)c1)N(C)CC2.[O-][Cl+3]([O-])([O-])O` (centres undefined) (library stock concentration (final ~1000-fold dilution): 10 mM), for which the “IRF Lucia reporter activity” value in assay [1] (setting [4]) amounted to 0.0548; in assay [1] (agonist: LPS (TLR4) 0.1 ug/mL) it was 0.74.
As to `O=C(O)CNC(=O)C1C(=O)N(C2CCCCC2)C(=O)N(C2CCCCC2)C1=O` (library stock concentration (final ~1000-fold dilution): 10 mM), the “IRF Lucia reporter activity” value is 0.947 in assay [1] (setting [4]) and 1.18 in assay [1] (agonist: LPS (TLR4) 0.1 ug/mL).
The matching figures for `Cl.NC1CC1c1ccccc1` (centres undefined) (library stock concentration (final ~1000-fold dilution): 10 mM): 1.08 and 1.14.
`Cl.NC1CC1c1ccccc1` (centres undefined): the “IRF Lucia reporter activity” value in assay [2] (setting [6]) amounted to 1.09.
With `COc1ccc2c(c1OC)CN1CCc3cc4c(cc3C1C2)OCO4` (centres undefined), the “IRF Lucia reporter activity” value in assay [2] (setting [6]) came out at 1.14.
As for `COc1ccc2c(c1OC)CN1CCc3cc4c(cc3C1C2)OCO4` (centres undefined) (library stock concentration (final ~1000-fold dilution): 10 mM), the figures for the “IRF Lucia reporter activity” value in assay [1] (setting [4]) and in assay [1] (agonist: LPS (TLR4) 0.1 ug/mL) were 0.849 and 1.29, respectively.
The matching figures for `COc1cc(C)[nH]c(=O)c1CNC(=O)c1c(C)n(C(C)C2CCOCC2)c2ccccc12` (centres undefined) (library stock concentration (final ~1000-fold dilution): 10 mM): 1.17 and 1.23.
As for `O=C(O)c1nn(Cc2ccc(Cl)cc2Cl)c2ccccc12`, the “IRF Lucia reporter activity” value in assay [2] (setting [6]) is 1.03.
As for `O=C(O)c1nn(Cc2ccc(Cl)cc2Cl)c2ccccc12` (library stock concentration (final ~1000-fold dilution): 10 mM), the entries for the “IRF Lucia reporter activity” value in assay [1] (setting [4]) and in assay [1] (agonist: LPS (TLR4) 0.1 ug/mL) were 0.95 and 1.07, respectively.
The matching figures for `Cc1cc(C(C#N)c2ccc(Cl)cc2)c(Cl)cc1NC(=O)c1cc(I)cc(I)c1O` (centres undefined) (library stock concentration (final ~1000-fold dilution): 10 mM): 0.797 and 0.817.
For the compound `Cc1cc(C(C#N)c2ccc(Cl)cc2)c(Cl)cc1NC(=O)c1cc(I)cc(I)c1O` (centres undefined), the “IRF Lucia reporter activity” value in assay [2] (setting [6]) came out at 0.822.
Turning to `CC(C)(C)c1cc(C=C(C#N)C#N)cc(C(C)(C)C)c1O`, in assay [2] (setting [5]), the “IRF Lucia reporter activity” value was 2.06.
On to `CC(C)(C)c1cc(C=C(C#N)C#N)cc(C(C)(C)C)c1O` (library stock concentration (final ~1000-fold dilution): 10 mM), for which the figures for the “IRF Lucia reporter activity” value in assay [3] (setting [4]) and in assay [3] (agonist: LPS (TLR4) 0.1 ug/mL) were 0.0158 and 2.17, respectively.
Regarding `O=C1C=C2C=CC3CC2(O1)C1CCCCN31` (centres undefined) (library stock concentration (final ~1000-fold dilution): 10 mM), the “IRF Lucia reporter activity” value came out at 0.438 in assay [1] (setting [4]) and 0.623 in assay [1] (agonist: LPS (TLR4) 0.1 ug/mL).
On to `CC(=O)O.Cc1cc2c(C(C)C)c(O)c(O)c(C=O)c2c(O)c1-c1c(C)cc2c(C(C)C)c(O)c(O)c(C=O)c2c1O` (library stock concentration (final ~1000-fold dilution): 10 mM), for which the “IRF Lucia reporter activity” value in assay [1] (setting [4]) is 0.981; in assay [1] (agonist: LPS (TLR4) 0.1 ug/mL), 1.28.
For the compound `CC(=O)O.Cc1cc2c(C(C)C)c(O)c(O)c(C=O)c2c(O)c1-c1c(C)cc2c(C(C)C)c(O)c(O)c(C=O)c2c1O`, in assay [2] (setting [6]), the “IRF Lucia reporter activity” value worked out at 1.13.
As for `Cl.ClCCN(Cc1ccccc1)Cc1ccccc1` (library stock concentration (final ~1000-fold dilution): 10 mM), the “IRF Lucia reporter activity” value in assay [3] (setting [4]) is 0.0495; in assay [3] (agonist: LPS (TLR4) 0.1 ug/mL) it was 0.138.
`Cl.ClCCN(Cc1ccccc1)Cc1ccccc1`: the “IRF Lucia reporter activity” value in assay [2] (setting [5]) stood at 0.101.
As to `COc1ccc(C(CN(C)C)C2(O)CCCCC2)cc1.Cl` (centres undefined), the “IRF Lucia reporter activity” value in assay [2] (setting [6]) turned out to be 0.528.
As for `COc1ccc(C(CN(C)C)C2(O)CCCCC2)cc1.Cl` (centres undefined) (library stock concentration (final ~1000-fold dilution): 10 mM), the “IRF Lucia reporter activity” value was determined as 0.779 in assay [1] (setting [4]) and 0.837 in assay [1] (agonist: LPS (TLR4) 0.1 ug/mL).
With `O=c1ccc2cc3ccoc3c(O)c2o1` (library stock concentration (final ~1000-fold dilution): 10 mM), the “IRF Lucia reporter activity” value in assay [1] (setting [4]) is 0.801 and 0.941; in assay [1] (agonist: LPS (TLR4) 0.1 ug/mL), 0.906 and 0.766.
For `Br.CN1C2CC(OC(=O)C(CO)c3ccccc3)CC1C1OC12` (centres undefined), in assay [2] (setting [6]), the “IRF Lucia reporter activity” value came to 1.07.
In the case of `Br.CN1C2CC(OC(=O)C(CO)c3ccccc3)CC1C1OC12` (centres undefined) (library stock concentration (final ~1000-fold dilution): 10 mM), the “IRF Lucia reporter activity” value was 1.01 in assay [1] (setting [4]) and 1.02 in assay [1] (agonist: LPS (TLR4) 0.1 ug/mL).
On to `O=C([O-])C(Cl)Cl.[Na+]` (library stock concentration (final ~1000-fold dilution): 10 mM), for which the “IRF Lucia reporter activity” value in assay [1] (setting [4]) was 1.12 and 0.935; in assay [1] (agonist: LPS (TLR4) 0.1 ug/mL), 1.12 and 1.18.
On to `CC(O)(CS(=O)(=O)c1ccc(F)cc1)C(=O)Nc1ccc(C#N)c(C(F)(F)F)c1` (centres undefined) (library stock concentration (final ~1000-fold dilution): 10 mM), for which the figures for the “IRF Lucia reporter activity” value in assay [1] (setting [4]) and in assay [1] (agonist: LPS (TLR4) 0.1 ug/mL) were 1.11 and 1.08, respectively.
On to `CC(O)(CS(=O)(=O)c1ccc(F)cc1)C(=O)Nc1ccc(C#N)c(C(F)(F)F)c1` (centres undefined), for which, in assay [2] (setting [6]), the “IRF Lucia reporter activity” value is 1.1.
